Assay results published in PubChem BioAssay AID2100 (National Center for Advancing Translational Sciences (NCATS), 2009).
Values joined by “and” are separate entries in the source; they are usually repeats but may differ in a detail not shown here. Identical values can stand only once. The campaign covered roughly 300,000 compounds. About 1,200 (0.4%) were called active. This list was built around the results that the source calls inconclusive (neither active nor inactive); the mix of calls is not that of the screen. The call rests on the fitted dose curve; in most records, active means well fitted inhibition curve with a large enough effect; inconclusive means small, poorly fitted or top-dose-only effect, or another doubt; inactive means no such curve, though single readings can be large or run the other way. Where the call is inconclusive, the potency comes from a doubtful curve fit.

target: Lysosomal alpha-glucosidase (Homo sapiens) (UniProt P10253); experiment: qHTS Assay for Inhibitors and Activators of Human alpha-Glucosidase Cleavage of Glycogen; settings: recombinant GAA, glycogen substrate, Amplex Red glucose oxidase fluorescence; activity change, negative = inhibition: at 76.4 µM (top of the series) unless noted;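 on activity change, negative = inhibition: 0% = full enzyme reaction and -100% = no-enzyme basal signal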
In short: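 Natural-substrate format: glycogen cleavage by 4 nM human enzyme, glucose read by Amplex Red coupling (Ex 573, Em 610 nm). Normalized to enzyme and no-enzyme controls.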
Potency means the concentration at half of the fitted maximal effect.

| SMILES | activity change, negative = inhibition | Potency |
| --- | --- | --- |
| Cc1ccc(NC(=O)CCCn2c3ccccc3c(=O)c3cc(C)ccc32)c(Br)c1 | inactive: 13.6% [at 76.3 µM] | – |
| CC1CCN(S(=O)(=O)c2ccc3c(c2)N(CC(=O)NCCc2ccc(Cl)cc2)C(=O)CO3)CC1 | – | inconclusive: 3.98 µM [inhibitor, partial curve] |
| COC(=O)/C=C1\S/C(=N\N=C\CC(=O)OC)NC1=O | – | inconclusive: 28.2 µM [inhibitor, single point] |
| Cc1ccc(C)c(NC(=O)N2CCN(C)c3ncccc32)c1 | – | inconclusive: 31.6 µM [inhibitor, partial curve] |
| O=C1CC(N2CCOCC2)=NN1c1ccc([N+](=O)[O-])cc1 | – | inconclusive: 17.8 µM [inhibitor, partial curve] |
| COc1ccccc1N1CCN(C(=O)CCC(=O)O)CC1 | inactive: -2.18% | – |
| COc1ccccc1-c1cc(C(F)(F)F)nc(S(=O)(=O)CCCC(=O)Nc2cc(C)ccc2O)n1 | – | inconclusive: 100 µM [inhibitor, partial curve] |
| CC/C(C)=N\Nc1nc(-c2cc3cc(OC)ccc3oc2=O)cs1 | – | inconclusive: 12.6 µM [inhibitor, partial curve] |
| CCOCCCn1c(=O)c2ccccc2n2c(=S)[nH]nc12 | – | inconclusive: 22.4 µM [inhibitor, partial curve] |
| CO/N=C(\C(=O)O)c1csc(NN=C(C)C)n1 | – | inconclusive: 2.22 µM [inhibitor, partial curve] |
| CN(C)c1ccc(CNc2ccccn2)cc1 | – | inconclusive: 17.8 µM [inhibitor, partial curve] |
| Cc1ccc2nc(-c3sc4nc(C)ccc4c3N)[nH]c2c1 | – | inconclusive: 25.1 µM [inhibitor, partial curve] |
| Oc1ccc(NCc2ccccc2OCc2ccccc2F)cc1 | – | inconclusive: 31.6 µM [activator, single point] and inconclusive: 50.1 µM [activator, single point] |
| COc1cc(-c2nc3ccccn3c2NCC2CCCO2)ccc1O (stereo not given) | – | active: 28.2 µM |
| CC(C)C[C@H](NC(=O)c1nc[nH]c1C(=O)NCC(=O)OCc1ccccc1)C(=O)OCc1ccccc1 | – | inconclusive: 11.2 µM [inhibitor, single point] |
| Cc1cc(C)nc(N/N=C/c2ccccc2)n1 | inactive: -27.6% | – |
| C/C=C/c1cc(CN2CCN(c3ccc(OC)cc3)CC2)c(O)c(OC)c1 | – | active: 14.1 µM |
| N#CC1=C(N)N(c2cccc(Cl)c2)C2=C(C(=O)CCC2)C1c1cc(CN2CCOCC2)cs1 (stereo not given) | – | inconclusive: 31.6 µM [inhibitor, partial curve] |
| O=C(CN1CCN(c2ccccc2)CC1)Nc1ccc(F)cc1 | inactive: -5.55% | – |
| C/C(CC(=O)Nc1cc(C)ccn1)=N\NC(=O)c1ccc(C)cc1 | – | inconclusive: 3.14 µM [inhibitor, full curve] |
| Nc1n[nH]c2cc(=O)n(-c3cccc(C(F)(F)F)c3)nc12 | – | active: 31.6 µM |
| O=[N+]([O-])c1ccccc1NC(=S)N/N=C/c1ccc(O)c(O)c1 | – | active: 3.55 µM |
| O=C(COC(=O)CNC(=O)C1CCCCC1)Nc1ccc2c(c1)OCCO2 | inactive: -16.9% | – |
| COCCCNC(=S)Nc1ccc(C)cc1 | inactive: -0.364% | – |

| SMILES | activity change, negative = inhibition | Potency |
| --- | --- | --- |
| Cc1ccc(CN(C(=O)c2ccccc2F)c2ccccn2)o1 | inactive: -8.45% [at 76.3 µM] | – |
| NC(=O)COc1ccccc1/C=C1/SC(=O)N(CC(=O)N2CCc3ccccc3C2)C1=O | inactive: 0.839% | – |
| Nc1ccccc1C(=O)NNc1c2ccccc2nc2ccccc12 | – | active: 39.8 µM |
| CCCCCCC(=O)Nc1nc(C)c(-c2csc(Nc3cc(OC)ccc3OC)n2)s1 | – | inconclusive: 28 µM [inhibitor, single point] |
| Cc1ccc(CNc2ncc(-c3ccc4c(c3)OCO4)n2C)cc1 | – | active: 19.8 µM |
| Cn1c(=O)c(C(=O)CN2CCCc3ccccc32)c(N)n(Cc2ccccc2)c1=O | – | inconclusive: 22.4 µM [inhibitor, partial curve] |
| S=C(NNC(=S)Nc1ccccc1)Nc1ccccc1 | – | inconclusive: 3.98 µM [inhibitor, partial curve] |
| S=C(NCC1CCCO1)Nc1ccc(Nc2ccccc2)cc1 (stereo not given) | – | inconclusive: 14 µM [inhibitor, partial curve] |
| CCOc1ccc(CCNC(=O)c2nn(-c3ccc(OC)cc3)c(=O)c3c2c2ccccc2n3C)cc1OCC | inactive: -1.23% [at 76.3 µM] | – |
| Cc1nn(CC(=O)NCc2ccccc2Br)c(=O)c2cc3occc3n12 | – | inconclusive: 39.8 µM [inhibitor, partial curve] |
| CN=Cc1cc(-c2ccccc2)sc1O | – | inconclusive: 22.4 µM [inhibitor, partial curve] |
| CNc1oc(/C=C/c2cc(OC)c(OC)c(OC)c2)nc1C#N | – | inconclusive: 31.6 µM [inhibitor, partial curve] |
| Cc1cccc(OCCCCn2c(C3CC(=O)N(c4ccc(C)cc4C)C3)nc3ccccc32)c1 (stereo not given) | inactive: -14.6% [at 76.3 µM] | – |
| COC(=O)COc1ccc2c(-c3cccc([N+](=O)[O-])c3)cc(=O)oc2c1 | – | inconclusive: 17.8 µM [inhibitor, partial curve] |
| CC(=O)NNc1nc(-c2ccccc2)cs1 | – | inconclusive: 31.4 µM [inhibitor, single point] |
| C=CCNC(=S)N/N=C(\C)c1ccc(-n2ccnc2)cc1 | – | inconclusive: 50.1 µM [inhibitor, single point] |
| Cc1cccc(C)c1Nc1c(-c2ccccc2O)nc2ncccn12 | – | inconclusive: 35.5 µM [inhibitor, partial curve] and inconclusive: 35.5 µM [inhibitor, single point] |
| NC(=O)CC(NC(=O)c1ccccc1)c1ccc(NCCCN2CCCC2=O)c([N+](=O)[O-])c1 (stereo not given) | – | inconclusive: 6.31 µM [inhibitor, partial curve] |
| O=S(=O)(c1ccc(NC(=S)NN=C2CCCCC2)cc1)N1CCOCC1 | – | inconclusive: 28.2 µM [inhibitor, single point] |
| Cc1cc(C)c(C)c(OCCN2CC(C)OC(C)C2)c1 (stereo not given) | inactive: -3.88% [at 76.3 µM] | – |
| COc1ccc(Cn2ccnc2)cc1Br | inactive: 0.148% | – |
| Cc1ccc(Nc2nnc(SCC(=O)c3cc4ccccc4o3)s2)cc1C | – | inconclusive: 22.4 µM [inhibitor, partial curve] |
| Oc1ccccc1/C=N/Nc1cccc2cccnc12 | – | active: 7.94 µM |
| O=S(=O)(NC(=S)NC1CCCCC1)c1ccc(Br)cc1 | – | inconclusive: 20 µM [inhibitor, partial curve] |

| SMILES | activity change, negative = inhibition | Potency |
| --- | --- | --- |
| Nc1ccccc1Nc1cccc(C(F)(F)F)c1 | – | active: 11.2 µM |
| COc1ccc(-c2ccc(C(c3c(C)[nH][nH]c3=O)c3c(C)[nH][nH]c3=O)o2)c([N+](=O)[O-])c1 | – | inconclusive: 22.4 µM [inhibitor, single point] |
| NC(=O)N1CCC2(CC1)NC(=O)N(c1ccccc1)N2 | – | inconclusive: 11.2 µM [inhibitor, partial curve] |
| CCCCCC(=O)Cc1cc(O)cc2c1C(=O)Oc1cc(O)c(C(=O)O)c(CCCCC)c1O2 | – | inconclusive: 44.7 µM [inhibitor, single point] |
| CCOc1ccccc1/C=N/Nc1cc(C)nc2ccc(C)cc12 | – | inconclusive: 35.5 µM [inhibitor, single point] |
| CC1(C)CC(=O)C2=C(C1)OC(=O)CC2c1cccs1 (stereo not given) | – | inconclusive: 28.2 µM [inhibitor, single point] |
| O=S(=O)(NCc1ccco1)c1ccc(S(=O)(=O)N2CCCC2)cc1 | – | active: 35.5 µM |
| CCNC(=O)Oc1ccc[nH]c1=O | – | inconclusive: 6.26 µM [inhibitor, partial curve] |
| CCc1cccc(C)c1Nc1c(-c2cccc(O)c2)nc2sccn12 | – | active: 35.5 µM |
| C/C(=N\N1CCN(Cc2ccccc2Cl)CC1)c1ccc([N+](=O)[O-])cc1 | – | inconclusive: 22.4 µM [inhibitor, partial curve] |
| CCOP(=O)(OCC)C(Nc1cccc([N+](=O)[O-])c1)c1ccc(N(C)C)cc1 (stereo not given) | – | inconclusive: 50.1 µM [inhibitor, single point] |
| COc1ccc(/C=N/NC(=O)c2cc(O)c(O)c(O)c2)cc1Cn1cc([N+](=O)[O-])cn1 | – | inconclusive: 8.91 µM [inhibitor, full curve] |
| C/C=N/NC(=O)c1cc(Br)ccc1O | – | inconclusive: 7.08 µM [inhibitor, full curve] |
| CC(C)(C)Nc1c(N)c(=O)oc2ccccc12 | – | inconclusive: 50.1 µM [inhibitor, single point] |
| CC(C)C[C@H](NC(=O)OC(C)(C)C)C(=O)N[C@@H](CO)[C@H](O)[C@@H]1C[C@@H]1C(=O)N(C)C | – | inconclusive: 50.1 µM [inhibitor, single point] |
| CCOc1ccc(C2C3=C(CCCC3=O)Nc3ccc4ncccc4c32)cc1 (stereo not given) | inactive: -6.99% | – |
| CCOCCCNC(=O)CCCC1=NS(=O)(=O)c2ccccc2N1 | inactive: 1.67% | – |
| COc1ccccc1N1CCN(C(=O)c2ccc3c(=O)n(Cc4ccco4)c(=S)[nH]c3c2)CC1 | inactive: 6.56% | – |
| O=C(Nc1cc(S(=O)(=O)N2CCOCC2)ccc1N1CCOCC1)c1cc(=O)[nH]c2ccccc12 | – | active: 28.2 µM |
| CCCNC(=O)CCc1cc(C(C)(C)C)c(O)c(C(C)(C)C)c1 | – | inconclusive: 25.1 µM [inhibitor, single point] |
| CC(C)Oc1ccc(/C=C(/NC(=O)c2ccccc2)C(=O)NCCC(=O)O)cc1 | – | inconclusive: 11.2 µM [inhibitor, partial curve] |
| Oc1ccc(/C=N/NC(=S)Nc2cccnc2)c(O)c1O | – | inconclusive: 4.47 µM [inhibitor, full curve, poor fit] |
